Results taken from paper PMC4336329 (PLoS ONE, 2015).
Hit rate of the full screen: of about 310,000 compounds, about 2,200 (0.71%) showed an effect of 50% or more. Effects have a minus sign here. Some of the results follow.

These compounds were tested against human ether-à-go-go-related gene (hERG) potassium channel (human, UniProt Q12809) (assay: primary screen, population patch clamp on CHO cells stably expressing hERG).
Sequence of human ether-à-go-go-related gene (hERG) potassium channel (Q12809 whole entry, looked up): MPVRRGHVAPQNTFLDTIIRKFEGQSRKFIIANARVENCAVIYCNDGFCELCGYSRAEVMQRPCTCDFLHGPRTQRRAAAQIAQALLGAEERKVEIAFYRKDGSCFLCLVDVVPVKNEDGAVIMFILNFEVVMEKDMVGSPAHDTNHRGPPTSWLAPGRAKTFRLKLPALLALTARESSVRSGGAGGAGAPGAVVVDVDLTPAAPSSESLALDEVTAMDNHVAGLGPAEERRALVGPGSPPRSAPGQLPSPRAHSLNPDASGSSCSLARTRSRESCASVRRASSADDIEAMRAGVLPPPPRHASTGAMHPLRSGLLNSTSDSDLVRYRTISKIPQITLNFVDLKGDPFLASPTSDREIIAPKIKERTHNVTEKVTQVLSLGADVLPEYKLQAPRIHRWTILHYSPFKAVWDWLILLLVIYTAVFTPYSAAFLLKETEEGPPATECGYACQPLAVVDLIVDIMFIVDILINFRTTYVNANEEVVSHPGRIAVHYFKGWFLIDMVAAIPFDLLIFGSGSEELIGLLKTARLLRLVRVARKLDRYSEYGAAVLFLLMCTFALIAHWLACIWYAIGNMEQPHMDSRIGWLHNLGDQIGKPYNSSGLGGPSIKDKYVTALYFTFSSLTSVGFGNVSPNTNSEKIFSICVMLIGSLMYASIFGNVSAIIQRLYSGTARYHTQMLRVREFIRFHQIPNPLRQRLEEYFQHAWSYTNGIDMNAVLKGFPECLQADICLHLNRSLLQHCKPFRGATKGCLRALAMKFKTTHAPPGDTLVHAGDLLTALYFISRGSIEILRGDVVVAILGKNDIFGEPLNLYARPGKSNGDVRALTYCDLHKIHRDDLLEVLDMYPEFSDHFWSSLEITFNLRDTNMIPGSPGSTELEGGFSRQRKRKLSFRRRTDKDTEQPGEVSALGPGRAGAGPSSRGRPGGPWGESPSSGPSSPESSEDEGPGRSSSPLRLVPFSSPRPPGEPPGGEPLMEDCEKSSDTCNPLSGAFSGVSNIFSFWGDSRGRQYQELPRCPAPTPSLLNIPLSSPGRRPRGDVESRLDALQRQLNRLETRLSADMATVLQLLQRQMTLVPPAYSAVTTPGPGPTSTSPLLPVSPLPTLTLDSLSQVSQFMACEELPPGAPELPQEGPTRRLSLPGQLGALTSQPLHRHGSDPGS

Row | Compound | hERG current change (%, negative = inhibition) at 1uM
1 | O=C(N/N=C/c1ccncc1)c1cc([N+](=O)[O-])cc([N+](=O)[O-])c1O | 6.52%
2 | COc1cccc(-c2nn(C)c3sc(C(=O)NCc4ccco4)cc23)c1 | 8.32%
3 | COc1ccc(S(=O)(=O)NCC2CCC(C(=O)NCc3ccc(F)cc3)CC2)cc1 (centres unmarked) | 13.1%
4 | CCOC(=O)c1cc(C)sc1NC(=O)CSc1nnnn1C | 8.11%
5 | COc1cc(C)c(S(=O)(=O)NCCCn2ccnc2)cc1C | 12.8%
6 | COC(=O)Nc1ccc(S(=O)(=O)N2c3ccccc3CCC2C)cc1 (centres unmarked) | 0.641%
7 | CCOC(=O)COc1cc(OCC(=O)OCC)c2c3c(c(=O)oc2c1)CCCC3 | 14.5%
8 | CN(Cc1c(C(=O)N/N=C/c2ccccc2)nnn1-c1nonc1N)C1CCCCC1 | 10.3%
9 | Cc1ccc(S(=O)(=O)N2CCCC(C(=O)N3CCN(c4ccccc4)CC3)C2)cc1 (centres unmarked) | -0.073%
10 | Cc1ccc(Cn2cc(/C=C/C(=O)O)c(-c3ccccc3)n2)cc1 | 6.62%
11 | CCC(NC(=S)NC1CCCCC1)c1ccccc1 (centres unmarked) | 11.9%
12 | C#Cc1cccc(C(=O)N2CCCC(Nc3cccc(F)c3)C2)c1 (centres unmarked) | 2.4%
13 | CC(=O)N1c2ccc(S(=O)(=O)NCCC(=O)N3CCC(C)CC3)cc2CC1C (centres unmarked) | 13.5%
14 | O=C(COc1ccc2ccccc2c1)Nc1cccc(C(=O)Nc2ccccc2C(=O)O)c1 | 10.4%
15 | O=C(CCSc1ccccc1Cl)Nc1cccc([N+](=O)[O-])c1 | 0.0505%
16 | CC(C)(C)[C@H]1C=C(C(=O)Nc2ccccc2)O[C@@H](OCCCCO)C1 | 13.4%
17 | Cn1c(=O)oc2cc(S(=O)(=O)CCC(=O)Nc3ccccc3)ccc21 | 24.5%
18 | CC(C)OC(=O)Nc1ccc(N=C(N)N[N+](=O)[O-])cc1 | 8.63%
19 | CCn1c(CN2CCN(Cc3ccc(C)cc3)C(CCO)C2)nc2ccccc21 (centres unmarked) | -50.5%
20 | CC(C)NC(=O)C1COc2ccccc2O1 (centres unmarked) | 20.7%
21 | O=C(Nc1ccccc1)Nc1ccc2ccccc2n1 | 7.12%
22 | CC(=O)c1cccc(NC(=O)N2CCCC2C(=O)NC2CCCCC2)c1 (centres unmarked) | 15.8%
23 | Cc1ccc(S(=O)(=O)N2CC(C)N(S(C)(=O)=O)C2)cc1 (centres unmarked) | 14.4%

Row | Compound | hERG current change (%, negative = inhibition) at 1uM
24 | CCCn1c(NC(=O)c2ccccc2Br)nc2ccccc21 | 14.9%
25 | Cc1ccc(S(=O)(=O)N2CCN(C(=O)COC(=O)CNC(=O)c3ccc(Cl)cc3Cl)CC2)cc1 | 10.9%
26 | COc1ccc(N2CCN(CC(O)COc3ccc([N+](=O)[O-])cc3)CC2)cc1.Cl (centres unmarked) | -45.5%
27 | CC(=O)Nc1nc(-c2cc([N+](=O)[O-])cs2)cs1 | 16.6%
28 | N#CC1=C(N)NC(SCC(=O)O)=C(C#N)C12CCCC2 | 2.54%
29 | COc1ccc(CCNC(=O)CCCCCN2C(=O)[C@@H]3Cc4ccccc4CN3C2=O)cc1OC | -2.73%
30 | Cc1ccccc1CN(c1ccc(C(N)=O)cc1)S(C)(=O)=O | -5.7%
31 | Cl.OC(COCc1ccccc1F)CN1CCCCC1 (centres unmarked) | 8.92%
32 | COc1ccc(-c2c3c(nc4sc(C(=O)Nc5cc(C)on5)c(N)c24)CCC3)cc1 | 4.77%
33 | O=C(COC(=O)c1n[nH]c2ccccc12)Nc1ccccc1 | 4.91%
34 | COc1cccc(NC(=O)C2CCC2)c1 | 9.17%
35 | COc1ccn(C)c(=O)c1C#N | 12.8%
36 | Cc1ccc(CN(C)CC(=O)Nc2ccccc2C(=O)NC2CC2)o1 | 4.6%
37 | Cc1sc2ncnc(NCC(O)c3ccccc3)c2c1C (centres unmarked) | 13.7%
38 | O=C1[C@@H]2[C@@H]3C[C@@H]([C@H]4ON=C(c5ccc(Cl)cc5Cl)[C@@H]34)[C@@H]2C(=O)N1C1CCCCC1 | 8.29%
39 | O=C(CCN1CCN(c2ccccc2)CC1)c1ccc(Br)cc1 | -0.103%
40 | CCOC(CNC(=O)Cn1nc(Cc2ccncc2)c2ccccc2c1=O)OCC | 15.1%
41 | Cc1ccc(-n2cc(C(=O)c3ccc(N4CCN(C)CC4)cc3)nn2)cc1Cl | 14%
42 | COc1cccc(NC(=O)c2ccc(CN3CCOCC3)cc2)c1 | 8.82%
43 | Oc1ccc(N2CCN(c3ccnc4cc(Cl)ccc34)CC2)cc1 | 5.36%
44 | COc1ccc(C2/C=C\CN(C(=O)Nc3ccccc3)CC(=O)N2Cc2ccc(F)cc2)cc1 (centres unmarked) | 11.1%
45 | COc1cccc(OCC(=O)NNC(=O)c2cccs2)c1 | 9.89%
46 | Cc1ccc(N2CC(NC(=O)C(=O)c3c(C)[nH]c4ccccc34)CC2=O)cc1 (centres unmarked) | -19.6%

Row | Compound | hERG current change (%, negative = inhibition) at 1uM
47 | CN(Cc1nc(-c2ccccn2)no1)S(=O)(=O)c1ccc(Cl)cc1 | 3.37%
48 | COc1cccc(OCC(O)CN2CCOCC2)c1.Cl (centres unmarked) | 14.2%
49 | Cc1ccc(-c2nc(NC(=O)CSc3nnc4scc(-c5ccccc5)n34)ns2)cc1 | 3.14%
50 | CCN(CC(=O)NCc1ccccc1Cl)CC(=O)Nc1c(F)cccc1F.O=C(O)C(=O)O | 7.28%
51 | CS(=O)(=O)N1CCC(C(=O)NCC2CCCO2)CC1 (centres unmarked) | 11.3%
52 | O=[N+]([O-])c1cc(-c2csc(NCCc3nc4cc(C(F)(F)F)ccc4n3CCCO)n2)ccc1Cl | 1.8%
53 | CSc1ncc(CN2CCN(C(C)C)C(CCO)C2)cn1 (centres unmarked) | 9.96%
54 | CCOC(=O)N1CCN(C(=O)/C(=C/c2ccc(N(C)C)cc2)NC(=O)c2ccccc2)CC1 | 11.8%
55 | Cc1c(OCC(=O)N2CCC(C(N)=O)CC2)ccc2c3c(c(=O)oc12)CCCC3 | 18%
56 | Cc1cc(C)nc(SCc2nc3ccccc3n2C)n1 | 8.87%
57 | O=C(O)c1cccnc1SCC(=O)N1CCCc2ccccc21 | 13.2%
58 | N#Cc1ccc(NCC(=O)Nc2ccc3c(c2)OCCO3)cc1 | 7.6%
59 | Cc1ccc(NC(=O)NNC(=O)c2ccccc2)cc1 | 18.2%
60 | CCn1c(CNc2ccc(Cl)cc2)nnc1SCC(=O)NCc1ccccc1 | -14.8%
61 | O=C(COC(=O)c1cc(S(=O)(=O)N2CCOCC2)c(Cl)cc1Cl)NC1CC1 | 12.3%
62 | O=C(O)c1cccc(-n2nnnc2SCc2ccccn2)c1 | -9.69%
63 | COc1ccc(-c2c3c(=O)n(C)c(=O)n(C)c3cn2NC(C)=O)cc1 | 16%
64 | COC(=O)CC1C(=O)NCCN1C(=O)CSc1nnc(Nc2ccc(OC)cc2)s1 (centres unmarked) | 1.83%
65 | CCc1ccc(NC(=O)CCNS(=O)(=O)c2cccc3nsnc23)cc1 | -0.137%
66 | CCOC(=O)c1cc(CC)sc1NC(=O)c1ccc([N+](=O)[O-])c(N2CCOCC2)c1 | 10.6%
67 | CCOc1cc(C2NC(=S)NC(C)=C2C(=O)Nc2ccc(OC)cc2)ccc1O (centres unmarked) | 7.01%
68 | COCCCn1c(C(C)C)nc2oc3cc(OC)ccc3c(=O)c2c1=O | -0.0816%
69 | CC1CCN(C(=O)C2CCCN(c3ncnc4c3nc3n4CCCCC3)C2)CC1 (centres unmarked) | 8.7%

Row | Compound | hERG current change (%, negative = inhibition) at 1uM
70 | CCOC(=O)c1[nH]c2ccc(Br)cc2c1NC(=O)CCN1CCOCC1 | 8.79%
71 | CSc1n[nH]c(NCc2ccccc2)n1 | 7.68%
72 | O=C(O)c1ccc(OCC2CCCO2)cc1 (centres unmarked) | 9.64%
73 | C/C(=N\O)C(=O)NCCCNCCCN(C)C | 16.3%
74 | CCOC(=O)N1CCN(c2c(NCc3ccccc3OC)c(=O)c2=O)CC1 | 8.96%
75 | C=CC(=O)NCNC(=O)C=C | 9.05%
76 | NC(=O)Cn1nnc(-c2ccc(CN3CCCCC3)cc2)n1 | 13.3%
77 | Cc1cc(/C=C2\C(=N)N3C(SCc4ccccc4)=NSC3=NC2=O)c(C)n1Cc1ccccc1 | 1.49%
78 | O=C1c2cccc3cc([N+](=O)[O-])cc(c23)C(=O)N1/N=C/c1ccc(O)cc1O | 11.9%
79 | COc1ccc(N(CC(=O)N/N=C/c2ccc(C(=O)O)cc2)S(=O)(=O)c2ccc(NC(C)=O)cc2)cc1 | 10.8%
80 | COc1ccc(NC(=O)c2ccc(CN3CCc4ccccc4C3)cc2)c(OC)c1 | 12.3%
81 | COc1ccc(C(c2nnnn2Cc2ccc(F)cc2)N2CCN(c3ccc(OC)cc3)CC2)cc1 (centres unmarked) | -1.07%
82 | CCCCCCC1CC(/C(C)=N\NC(N)=O)OC1=O (centres unmarked) | -10.9%
83 | O=C(CSc1nnc2ccc(-c3ccc(F)cc3)nn12)NCC1CCCO1 (centres unmarked) | -0.927%
84 | Cc1nnc(SCC(=O)N2CC(=O)Nc3ccccc32)s1 | 2.13%
85 | Cc1cccc(-n2c(-c3cccs3)nc3ccccc3c2=O)c1 | 9.53%
86 | COc1ccc(Cl)cc1NC(=O)CN(c1ccccc1)S(=O)(=O)N(C)C | 8.52%
87 | Cc1cc(NC(=O)CSc2nnc(C3CC3)n2N)c([N+](=O)[O-])cc1C | 24.8%
88 | CCC(C)(C)C(=O)Nc1cc([N+](=O)[O-])ccc1F | 11.6%
89 | CN(CC(=O)Nc1ccc(Cl)c(C(F)(F)F)c1)C(=O)c1cc(-c2ccncc2)nc2ccccc12 | 10.9%
